Several values for one entry are separate records, joined by “and”; a condition that tells them apart may be missing. Equal entries are not always repeated. Out of some 94,000 compounds screened, about 4,000 (4.3%) were called active. This list was built around the results that the source calls inconclusive (neither active nor inactive); the mix of calls is not that of the screen. Calls come from the whole dose curve; as a rule, active = well fitted inhibition curve with a large enough effect; inconclusive = small, poorly fitted or top-dose-only effect; inactive = no such curve, though single readings can be large or run the other way. Where the call is inconclusive, the potency comes from a doubtful curve fit.
Assay: Cytotoxic Profiling in NIH 3T3 Cell Line of Diverse Libraries Using Quantitative High-Throughput Screening; note: nearly all actives have a fitted effect of over 55% in size
Conditions: NIH 3T3 viability, CellTiter-Glo ATP luminescence, 48-72 h; activity change, negative = cytotoxicity: at 96.7 µM (top of the series) unless noted; series mostly up to 96.7 µM
Summary of the method: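 Luminescent ATP readout (CellTiter-Glo, 10 min RT) after 48 or 72 hr compound exposure of NIH 3T3 cells seeded at 400 cells/well in 1536-well format; quantitative HTS.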
% is set by controls: 0 for no effect and ±100 for the full control effect; potency is the fitted concentration of half-maximal effect; tags give direction and shape of the fitted curve.

Q: For `CCn1nccc1C(=O)N1CCCC(COc2ccccc2C(=O)NC(C)C)C1` (stereo unspecified), which Potency is on record?
A: The Potency was inconclusive: 50.1 µM [inhibitor, partial curve, poor fit].

Q: For `COc1ccc(-c2nccn3cc(C(=O)O)nc23)cc1`, which “activity change, negative = cytotoxicity” value is on record?
A: The value was inactive: -35.6%.

Q: Which Potency does the source give for `O=C(NCC1CCCCC1)c1cn2cc(-c3ccccc3)sc2n1` here?
A: Its Potency is inconclusive: 44.7 µM [inhibitor, partial curve, poor fit].

Q: For `CN(Cc1ccc(F)cc1)c1ccc2ncc(Nc3ccc4c(c3)OCO4)n2n1`, which Potency is on record?
A: The Potency was active: 28.2 µM.

Q: Which Potency does the source give for `O=C(NC1CCN(Cc2ccc(-c3ccsc3)cc2)C1)c1ccccc1` (stereo unspecified) here?
A: Its Potency is inconclusive: 56.2 µM [inhibitor, partial curve, poor fit].

Q: With `CCCc1noc(-c2cn(C3CCN(C(=O)c4ccc(OC)c(F)c4)CC3)nn2)n1` as the compound, how does the “activity change, negative = cytotoxicity” value read?
A: Its value is inactive: -29.2%.

Q: For `COc1ccc(CN[C@@H]2C=C[C@@H](c3c(C)nn(-c4ccccc4)c3C)C2)cc1`, which Potency is on record?
A: The Potency was active: 50.1 µM.

Q: With `COC(=O)N1CCN(Cc2ccccc2-c2cccnc2)CC1` as the compound, how does the Potency read?
A: The Potency was inconclusive: 56.2 µM [inhibitor, partial curve, poor fit].

Q: Which “activity change, negative = cytotoxicity” value does the source give for `COc1cccc(CNC(=O)C2Cn3cccc3C(=O)N2Cc2ccccc2)c1` (stereo unspecified) here?
A: Its value is inactive: -24.1%.

Q: Which Potency does the source give for `C[C@@H](NC(=O)C1CCCCC1)c1c(-c2ccc(F)cc2)noc1C(=O)O` here?
A: Its Potency is active: 39.8 µM.

Q: Which Potency does the source give for `Cn1ncc2c(C(=O)N3CCC(Cc4ccccc4)CC3)cc(-c3ccccc3C(F)(F)F)nc21` here?
A: The Potency was active: 28.2 µM.

Q: For `O=C1Nc2ccccc2C12CCN(c1cc(C3CC(O)C3)ncn1)CC2` (stereo unspecified), which “activity change, negative = cytotoxicity” value is on record?
A: Its value is inactive: -29.4%.

Q: With `CN(c1cc(=O)c2ccnc(-c3cccc(C(F)(F)F)c3)c2o1)C1CCOCC1` as the compound, how does the Potency read?
A: Its Potency is active: 12.6 µM.

Q: Which “activity change, negative = cytotoxicity” value does the source give for `COc1ccc(CN2CCN3C(=O)N(Cc4ccccc4)C[C@H]3C2)cc1` here?
A: The value was inactive: -19.6% [at 138 µM].

Q: For `COc1ccccc1OCCNC(=O)[C@@H]1COCC(=O)N1Cc1ccc(F)cc1`, which “activity change, negative = cytotoxicity” value is on record?
A: Its value is inactive: -6.51%.

Q: For `CC(C)(C)CC(=O)N1CCC(N2C(=O)N(Cc3cccnc3)CC23CCOC3)CC1` (stereo unspecified), which “activity change, negative = cytotoxicity” value is on record?
A: The value was inactive: -27.7%.

Q: Which Potency does the source give for `COc1ccc(OCc2cc(C(=O)NCCc3nc(C)c(C)s3)no2)c(Cl)c1` here?
A: The Potency was inconclusive: 50.1 µM [inhibitor, partial curve, poor fit].

Q: For `COc1ccccc1-c1ccc(CN2CCC(NC(=O)c3ccncc3)C2)cc1` (stereo unspecified), which Potency is on record?
A: The Potency was inconclusive: 44.7 µM [inhibitor, partial curve, poor fit].

Q: For `COc1ccc(-c2noc([C@@H]3CCCN3C(=O)c3cc4ccccc4[nH]3)n2)cc1OC`, which “activity change, negative = cytotoxicity” value is on record?
A: Its value is inactive: -9.7%.

Q: Which Potency does the source give for `COc1ccc(Nc2cnc3ccc(-c4ccccc4OC)nn23)cc1` here?
A: The Potency was inconclusive: 44.7 µM [inhibitor, partial curve, poor fit].

Q: Which Potency does the source give for `O=[S+]([O-])(Nc1cc(C2CC2)nn1-c1ccccc1)c1ccccc1` here?
A: Its Potency is inconclusive: 79.4 µM [inhibitor, partial curve, poor fit].

Q: For `COC[C@@H]1CN(Cc2cccc(OC)c2OC)C[C@H]1c1ccccn1`, which Potency is on record?
A: Its Potency is inconclusive: 70.8 µM [inhibitor, partial curve, poor fit].

Q: For `CCN1c2cc(C(=O)Nc3ccc(N4CCOCC4)cc3)ccc2C(=O)N2CCCCC21` (stereo unspecified), which Potency is on record?
A: The Potency was active: 20 µM.

Q: Which Potency does the source give for `O=C(c1ccc(Cl)cc1)N1CCC2(C1)C(=O)N(CCc1ccccc1)c1ccccc12` (stereo unspecified) here?
A: The Potency was inconclusive: 44.7 µM [inhibitor, partial curve, poor fit].

Q: With `Cc1noc(C)c1[S+](=O)([O-])N1CCCC(C(=O)N2CCC(c3nc4ccncc4[nH]3)C2)C1` (stereo unspecified) as the compound, how does the “activity change, negative = cytotoxicity” value read?
A: Its value is inactive: -13.3%.

Q: Which Potency does the source give for `Cc1noc(C)c1C(=O)N1CCC(N2C(=O)C3(CCCC3)C2c2ccccc2)CC1` (stereo unspecified) here?
A: The Potency was inconclusive: 44.7 µM [inhibitor, partial curve, poor fit].

Q: With `COCc1cccc(-c2n[nH]c3c2CC(=O)N(Cc2ccccc2)C3)c1` as the compound, how does the Potency read?
A: The Potency was inconclusive: 44.7 µM [inhibitor, partial curve, poor fit].

Q: Which “activity change, negative = cytotoxicity” value does the source give for `CCCCn1c(=O)c(C(=O)NC)nc2cccnc21` here?
A: The value was inactive: 0.811% [at 138 µM].

Q: With `Cc1ccc(Cl)c(OCC(=O)c2ccc3c(c2)N(CCCC(=O)N2CCOCC2)C(=O)CO3)c1` as the compound, how does the “activity change, negative = cytotoxicity” value read?
A: Its value is inactive: -25.8%.

Q: With `COc1ccccc1-c1cccc(CN2CCC(NC(=O)c3ccccc3C)CC2)c1` as the compound, how does the Potency read?
A: The Potency was inconclusive: 56.2 µM [inhibitor, partial curve, poor fit].

Q: For `O=C(c1ccc2c(c1)OCO2)N1CCN(c2ccc3nnc(C4CC4)n3n2)CC1`, which Potency is on record?
A: Its Potency is inconclusive: 50.1 µM [inhibitor, single point].

Q: With `c1ccc(-n2cc(CN3CCCC3c3nc4ccccc4s3)nn2)cc1` (stereo unspecified) as the compound, how does the Potency read?
A: The Potency was inconclusive: 89.1 µM [inhibitor, partial curve, poor fit].

Q: For `O=C(c1cccnc1)N1CCCC1c1nc(CCOCC2CC2)no1` (stereo unspecified), which “activity change, negative = cytotoxicity” value is on record?
A: Its value is inactive: -8.27%.

Q: Which “outcome” value does the source give for `COCCCNC(=O)N1CC(c2nc(CCOCC3CCOCC3)no2)C1` here?
A: The value was “inactive”.

Q: With `CNC(=O)c1noc(CN2CCCC(CCc3ccccc3C(F)(F)F)C2)n1` (stereo unspecified) as the compound, how does the Potency read?
A: The Potency was inconclusive: 39.8 µM [inhibitor, full curve, poor fit].

Q: With `Cn1c(CNC(=O)CCC[C@@H]2[C@H]3CCCN4CCC[C@@H](CN2Cc2ccccc2)[C@@H]34)nc2ccccc21` as the compound, how does the Potency read?
A: The Potency was inconclusive: 44.7 µM [inhibitor, partial curve, poor fit].

Q: Which Potency does the source give for `COc1ccc(-c2nnc(C[C@@H]3C[C@@H](C(C)C)[C@H](CN4CCC(O)CC4)C=C3C)o2)cc1` here?
A: Its Potency is inconclusive: 44.7 µM [inhibitor, partial curve, poor fit].

Q: Which “activity change, negative = cytotoxicity” value does the source give for `COc1ccc(C(=O)N2CC[C@@H](n3c(=O)n(C)c4cccnc43)C2)c(OC)c1` here?
A: Its value is inactive: -33.2%.

Q: With `COCCn1ncc(N2CCCC(CC(=O)NCc3ccc(C)cc3)C2)cc1=O` (stereo unspecified) as the compound, how does the “activity change, negative = cytotoxicity” value read?
A: The value was inactive: -5.64%.

Q: With `Cc1cccc(-c2cnc3[nH]cc(CC(N)=O)c3c2)c1` as the compound, how does the Potency read?
A: The Potency was inconclusive: 50.1 µM [inhibitor, full curve, poor fit].

Q: With `COc1ccc(NC(=O)C[C@@H]2C[C@@H](C(C)C)[C@H](CC#N)C=C2C)cn1` as the compound, how does the Potency read?
A: The Potency was active: 79.4 µM.

Q: With `COCCCn1c(=O)c(C(=O)NCCCc2ccccc2)nc2cccnc21` as the compound, how does the “activity change, negative = cytotoxicity” value read?
A: Its value is inactive: -14.7%.

Q: With `CCNc1ncnc2sc3c(c12)CCN(C(=O)c1ccnn1C)C3` as the compound, how does the Potency read?
A: Its Potency is inconclusive: 70.8 µM [inhibitor, single point].

Q: Which Potency does the source give for `COc1ccc(-c2nc3cc(C)ccc3cc2CN2CCCC(C(N)=O)C2)cc1` (stereo unspecified) here?
A: The Potency was inconclusive: 15.8 µM [inhibitor, full curve, poor fit].

Q: For `COc1ccc(S(=O)(=O)N2C[C@@H]3C[C@H](C2)c2ccc(NC(=O)c4cnccn4)c(=O)n2C3)cc1`, which “activity change, negative = cytotoxicity” value is on record?
A: Its value is inactive: 1.07%.

Q: For `CC(C)Oc1ccc(CN2CCc3nc(N4CCN(C)CC4)[nH]c(=O)c3CC2)cc1`, which “activity change, negative = cytotoxicity” value is on record?
A: The value was inactive: -1.38%.

Q: For `Cc1nn(Cc2ccccc2)c(C)c1[C@@H]1C=C[C@@H](NC(=O)CCC(=O)O)C1`, which “activity change, negative = cytotoxicity” value is on record?
A: The value was inactive: -36.2% [at 174 µM].

Q: With `O=C(c1cccc(O)c1)N1CC(COc2ccccc2)C2(C1)CN(C(=O)c1cn[nH]c1)C2` (stereo unspecified) as the compound, how does the Potency read?
A: The Potency was inconclusive: 89.1 µM [inhibitor, partial curve].

Q: With `O=C1CC2(CCN(Cc3cccs3)CC2)Oc2cc(Cl)ccc21` as the compound, how does the Potency read?
A: The Potency was “inactive and inconclusive: 44.7 µM [inhibitor, partial curve, poor fit]”.

Q: Which “activity change, negative = cytotoxicity” value does the source give for `O=C(c1ccc2nc(-c3cccnc3)oc2c1)N1CCOCC1` here?
A: Its value is inactive: -15.2% [at 138 µM].

Q: For `Cc1cn2nc(C(=O)NCc3ccccc3)cc2c(=O)[nH]1`, which “activity change, negative = cytotoxicity” value is on record?
A: Its value is inactive: -3.73%.

Q: With `CCCc1nn(-c2cccc(C)c2)c(=O)n1CC(=O)NCC1(O)CCCCC1` as the compound, how does the “activity change, negative = cytotoxicity” value read?
A: The value was inactive: -5.29%.

Q: With `O=C(c1cccc2cnccc12)N1CCCC2(C=Cc3ccccc3O2)CC1` (stereo unspecified) as the compound, how does the Potency read?
A: Its Potency is inconclusive: 50.1 µM [inhibitor, partial curve, poor fit].

Q: Which Potency does the source give for `COc1ccc(CN2C[C@@H]3[C@H](C2)N(CC2CCOCC2)C(=O)C(C)(C)[S+]3(=O)[O-])cc1O` here?
A: Its Potency is inconclusive: 44.7 µM [inhibitor, partial curve, poor fit].

Q: With `O=C(N1CCOCC2(C1)CN([S+](=O)([O-])c1ccccc1)C2)C1(c2ccccc2)CC1` as the compound, how does the “activity change, negative = cytotoxicity” value read?
A: Its value is inactive: -22.7% [at 138 µM].

Q: For `CC(=O)c1cc(CN2CCN(c3nnc(C(F)(F)F)s3)CC2)cs1`, which activity change, negative = cytotoxicity is on record?
A: The activity change, negative = cytotoxicity was inconclusive: -31.9% [inhibitor].

Q: Which Potency does the source give for `CCc1nc2c(c(-c3ccc(OC)cc3)n1)CN([S+](=O)([O-])c1c(C)noc1C)CC2` here?
A: The Potency was inconclusive: 10 µM [inhibitor, full curve, poor fit].

Q: Which Potency does the source give for `O=C(NCc1ccccc1C(F)(F)F)C1CCCN(c2cnn(Cc3ccccc3)c(=O)c2)C1` (stereo unspecified) here?
A: The Potency was inconclusive: 50.1 µM [inhibitor, partial curve, poor fit].

Q: Which Potency does the source give for `Cn1cc(CN2CCOCCNC(=O)CC2)c2ccccc21` here?
A: The Potency was inconclusive: 79.4 µM [inhibitor, single point].

Q: For `CN1CCC(Cn2ccc3c(N4CCOCC4)nc(-c4cccc5[nH]ccc45)cc32)CC1`, which Potency is on record?
A: Its Potency is active: 35.5 µM.

Q: For `CS(=O)(=O)NCCc1ccc(CC2CCN(C(=O)CCC3CCCC3)CC2)cc1`, which Potency is on record?
A: The Potency was inconclusive: 56.2 µM [inhibitor, partial curve, poor fit].

Q: Which Potency does the source give for `Cc1ccccc1CN1CCCn2nc(C)c(-c3cccnc3N3CCOCC3)c21` here?
A: The Potency was inconclusive: 56.2 µM [inhibitor, partial curve, poor fit].

Q: With `CCC1=C(C(=O)OC)C(c2ccc(C)cc2C)N2C(CC(=O)N3CCC(C)CC3)=CSC2=N1` (stereo unspecified) as the compound, how does the Potency read?
A: Its Potency is inconclusive: 39.8 µM [inhibitor, partial curve].

Q: For `COCc1nc(C2CC(Nc3ccnc4cc(Cl)ccc34)C2)cc(=O)[nH]1` (stereo unspecified), which Potency is on record?
A: Its Potency is inconclusive: 39.8 µM [inhibitor, partial curve, poor fit].

Q: With `O=C(Nc1cccc(F)c1)[C@@H]1C[C@H](c2ccc(F)cc2)N([S+](=O)([O-])C2CC2)C1` as the compound, how does the Potency read?
A: Its Potency is inconclusive: 100 µM [inhibitor, partial curve, poor fit].

Q: With `COc1ccc(-c2cc(N3CCCC(NC(=O)c4ccc5c(c4)OCO5)C3)n[nH]2)cc1` (stereo unspecified) as the compound, how does the Potency read?
A: The Potency was inconclusive: 50.1 µM [inhibitor, partial curve, poor fit].

From PubChem BioAssay AID1345082 (National Center for Advancing Translational Sciences (NCATS), 2018)
